Reference: PubChem BioAssay AID624417 (National Center for Advancing Translational Sciences (NCATS), 2012)
The whole screen tested about 410,000 compounds, of which about 6,400 (1.6%) were called active. This list was built around the results that the source calls inconclusive (neither active nor inactive); the mix of calls is not that of the screen. Calls follow the shape of the dose curve; as a rule, active = well fitted inhibition curve with a large enough effect; inconclusive = small, poorly fitted or top-dose-only effect; inactive = no such curve, though single readings can be large or run the other way. No potency is given beside an inconclusive call; the fits are too rough.

target: Glucagon-like peptide 1 receptor (Homo sapiens) (UniProt P43220); experiment: qHTS of GLP-1 Receptor Inverse Agonists (Inhibition Mode); details: HEK293 GLP-1R CRE-luciferase, luminescence, 24 h, GLP-1R form is constitutively active; series mostly up to 38.3 µM; also: nearly all actives have a fitted effect of over 55% in size
How it was run: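 Seeding at 200 cells/uL, 12 h culture, 24 hr compound treatment, then luciferase reagent and a luminescence read; cells are HEK293 stably expressing a constitutively active GLP-1R plus cAMP-responsive luciferase.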
Potency is read from the fitted curve at half-maximal effect; tags tell the direction and shape of the fitted curve.

UniProt P43220, sequence (P43220 whole entry, looked up): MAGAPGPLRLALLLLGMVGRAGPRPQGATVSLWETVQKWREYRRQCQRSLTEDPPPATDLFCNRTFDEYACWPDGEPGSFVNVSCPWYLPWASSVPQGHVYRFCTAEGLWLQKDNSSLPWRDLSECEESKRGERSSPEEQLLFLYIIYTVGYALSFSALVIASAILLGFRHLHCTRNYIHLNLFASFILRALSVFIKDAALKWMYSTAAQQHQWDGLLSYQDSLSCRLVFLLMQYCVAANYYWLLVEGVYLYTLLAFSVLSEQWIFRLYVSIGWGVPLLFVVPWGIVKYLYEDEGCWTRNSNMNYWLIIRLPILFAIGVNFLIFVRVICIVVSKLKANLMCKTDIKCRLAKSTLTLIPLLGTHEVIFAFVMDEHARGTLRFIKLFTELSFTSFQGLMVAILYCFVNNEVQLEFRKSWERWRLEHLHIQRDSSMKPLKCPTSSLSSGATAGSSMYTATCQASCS

| Compound | Potency |
| --- | --- |
| Cc1ccc(S(=O)(=O)N2CCN(CC(O)COc3ccccc3)CC2)cc1 (stereo unspecified) | inconclusive [inhibitor, partial curve] |
| O=C(NC1CCCC1)C1CCN(C(=O)c2ccc(-c3ccccc3)cc2)CC1 | inconclusive [inhibitor, single point] |
| COc1ccc(C)cc1NC(=O)CSc1nc(=O)n(Cc2ccccn2)c2c1CCC2 | inactive |
| O=C(NCc1cccc(C(F)(F)F)c1)C1CCC(=O)N(C2CCCCCC2)C1 (stereo unspecified) | inconclusive [inhibitor, single point] |
| Cn1nnnc1SCCCNCc1cccc(OCc2ccccc2Cl)c1 | inconclusive [inhibitor, partial curve, poor fit] |
| CCOC(=O)c1cnc(SCc2ccccc2)nc1N | inconclusive [inhibitor, partial curve, poor fit] |
| CCN(CC)c1ccc(/C=N/NC(=O)c2ccc3nc[nH]c3c2)c(O)c1 | inactive |
| CN(C)CCCN(Cc1ccccc1)C(=S)NCc1ccccc1 | inconclusive [inhibitor, single point] |
| Cc1nc2c(sc(=S)n2Cc2ccco2)c(=O)n1CC(=O)Nc1ccccc1F | inconclusive [inhibitor, full curve, poor fit] |
| Cc1ccc(Cn2c(CNC(=O)c3cccc(C)c3)nc3ccccc32)cc1 | inconclusive [inhibitor, partial curve, poor fit] |
| COc1ccccc1N(Cc1ccccc1)S(=O)(=O)c1cccc(C(=O)Nc2ccc(C)cn2)c1 | inconclusive [inhibitor, partial curve, poor fit] |
| NCCC(=O)N1c2ccccc2Sc2ccccc21 | inconclusive [inhibitor, partial curve] |
| COc1ccc(Br)cc1CN(C)CC(O)COc1ccc(Br)cc1 (stereo unspecified) | inconclusive [inhibitor, partial curve, poor fit] |
| Cc1cc(OCc2cc(C(=O)N(C)CCc3cnn(C)c3)no2)cc(C)c1Cl | inconclusive [inhibitor, single point] |
| O=C(CSCc1c(Cl)cccc1Cl)NCc1ccco1 | inconclusive [inhibitor, single point] |
| C=CCn1c(SCc2c(C(=O)OC)sc(N)c2C(=O)OC)nnc1-c1ccc(Br)cc1 | inconclusive [inhibitor, partial curve] |
| Cc1nonc1NC(=O)c1ccc(Cl)c(S(=O)(=O)N2CCCCC2)c1 | inconclusive [inhibitor, single point] |
| Cc1ccc(-c2nn(-c3ccccc3)cc2C=C2C(=O)CC(C)(C)CC2=O)cc1 | inconclusive [inhibitor, single point] |
| N#Cc1ccccc1NC(=O)c1cnc(N2CCOCC2)c2ccccc12 | inactive |
| O=C1CC[C@@H](C(=O)N2CSC[C@@H]2C(=O)Nc2ccc(C(F)(F)F)cc2)N1 | inconclusive [inhibitor, single point] |
| COc1ccc(C(C)(O)c2nc(-c3ccc(F)c(Cl)c3)cs2)cc1 (stereo unspecified) | inconclusive [inhibitor, single point] |

| Compound | Potency |
| --- | --- |
| O=C(C1CCN(Cc2ccc(OCc3ccccc3)cc2)CC1)N1CCCC1 | inactive |
| C[C@@H]1CN([C@H](C)CO)C(=O)Cc2cc(NS(=O)(=O)c3ccc(F)cc3)ccc2O[C@H]1CN(C)Cc1ccc(C(=O)O)cc1 | inactive |
| CCC(=O)N1CCc2cc(Br)cc(S(=O)(=O)CCC(=O)NCc3ccc(F)cc3)c21 | inactive |
| COc1ccc(C(=O)/C=C/Nc2ccccn2)cc1 | inconclusive [inhibitor, partial curve] |
| CCNC(=O)C1(C)CCCN(Cc2cccc3c2OCCO3)C1 (stereo unspecified) | inactive |
| c1coc(Cn2nnnc2CN2CCN(C3CCCC3)CC2)c1 | inactive |
| O=C(OCC(=O)N1CCCc2ccccc21)c1ccc(C(F)(F)F)cc1 | inconclusive [inhibitor, single point] |
| N=C1/C(=C/c2ccc(-c3cccc(C(=O)O)c3)o2)C(=O)N=C2SC=C(c3ccccc3)N12 | inconclusive [inhibitor, single point] |
| O=C(CSc1nc2ccncc2[nH]1)Nc1ccccc1C(F)(F)F | inconclusive [inhibitor, single point] |
| O=C(Nc1c(C(=O)N2CCN(c3ccccc3F)CC2)oc2ccccc12)c1ccccc1F | inconclusive [inhibitor, single point] |
| CN(CC(=O)Nc1ccccc1Br)C(=O)CCC1CCCC1 | inconclusive [inhibitor, single point] |
| Cc1ccc(-n2nc3c(=O)n(CCCC(=O)NCc4ccccc4F)nc(C)c3c2C)cc1 | inconclusive [inhibitor, full curve, poor fit] |
| COc1ccc([C@H]2N[C@]3(CCCN(Cc4ccc(C)cc4)C3=O)[C@H]3C(=O)N(Cc4ccccc4)C(=O)[C@@H]23)cc1 | inconclusive [inhibitor, single point] |
| S=C(NCc1cccnc1)Nc1ccc(Cl)c(Cl)c1 | inconclusive [inhibitor, single point] |
| CN1CCN(CCCNC(=O)c2ccc3nc(Cc4ccccc4)oc3c2)CC1 | inactive |
| COc1ccc(-c2ccccc2)cc1NC(=O)C1(C)CCN1C(=O)C(C)C (stereo unspecified) | inconclusive [inhibitor, single point] |
| Cc1ccc(Nc2ccc(C(=O)NCCc3ccccc3)cn2)cc1 | inconclusive [inhibitor, partial curve, poor fit] |
| O=C(CN1CCCN(Cc2ccc(F)cc2)S1(=O)=O)NCc1ccccc1Cl | inconclusive [inhibitor, single point] |
| O=C1OCCC1=COCCCCOC=C1CCOC1=O | inactive |
| CCOC(=O)CN1C(=O)S/C(=C\c2ccc(-c3ccc(C(=O)O)c(Cl)c3)o2)C1=O | inconclusive [inhibitor, partial curve] |
